# Screen size: about 310,000 compounds; about 2,200 (0.71%) showed an effect of 50% or more. Effects have a minus sign here. Some of the results follow.
# Target: human ether-à-go-go-related gene (hERG) potassium channel (human, UniProt Q12809)
# Experiment: primary screen, population patch clamp on CHO cells stably expressing hERG
# human ether-à-go-go-related gene (hERG) potassium channel, sequence (Q12809 whole entry, looked up): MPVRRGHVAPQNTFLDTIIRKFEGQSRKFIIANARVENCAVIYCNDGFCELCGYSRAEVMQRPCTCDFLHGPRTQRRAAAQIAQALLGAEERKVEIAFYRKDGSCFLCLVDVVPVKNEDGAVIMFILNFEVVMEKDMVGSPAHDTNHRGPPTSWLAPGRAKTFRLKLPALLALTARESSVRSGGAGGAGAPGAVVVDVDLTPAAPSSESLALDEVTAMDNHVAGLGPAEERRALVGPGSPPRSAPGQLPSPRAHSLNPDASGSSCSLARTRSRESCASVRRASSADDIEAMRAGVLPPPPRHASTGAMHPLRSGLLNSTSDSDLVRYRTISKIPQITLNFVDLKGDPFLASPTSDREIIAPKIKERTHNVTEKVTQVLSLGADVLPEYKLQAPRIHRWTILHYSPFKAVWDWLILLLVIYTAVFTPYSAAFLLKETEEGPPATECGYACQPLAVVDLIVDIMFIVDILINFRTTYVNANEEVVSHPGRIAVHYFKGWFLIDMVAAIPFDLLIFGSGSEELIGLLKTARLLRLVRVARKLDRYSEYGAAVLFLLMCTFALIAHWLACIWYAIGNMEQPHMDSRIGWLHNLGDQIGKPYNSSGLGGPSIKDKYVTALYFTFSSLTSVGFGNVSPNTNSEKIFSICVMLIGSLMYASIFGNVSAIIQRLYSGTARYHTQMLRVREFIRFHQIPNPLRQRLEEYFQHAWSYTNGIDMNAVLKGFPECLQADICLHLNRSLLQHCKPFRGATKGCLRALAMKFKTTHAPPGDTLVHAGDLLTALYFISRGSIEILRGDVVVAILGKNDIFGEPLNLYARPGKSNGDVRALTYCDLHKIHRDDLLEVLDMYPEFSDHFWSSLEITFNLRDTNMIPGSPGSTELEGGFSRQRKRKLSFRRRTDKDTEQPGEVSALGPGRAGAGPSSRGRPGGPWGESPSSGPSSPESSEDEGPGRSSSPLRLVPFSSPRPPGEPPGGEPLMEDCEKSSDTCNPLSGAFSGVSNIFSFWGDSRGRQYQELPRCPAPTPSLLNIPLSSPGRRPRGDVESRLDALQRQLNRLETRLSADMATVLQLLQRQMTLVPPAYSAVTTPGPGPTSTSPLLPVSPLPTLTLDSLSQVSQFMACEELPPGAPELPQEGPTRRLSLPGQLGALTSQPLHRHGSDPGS
row,Compound,"hERG current change (%, negative = inhibition) at 1uM [%]"
1,O=C1CCCN1CN(C(=O)c1ccccc1)c1ccc(F)cc1,12.2
2,CCOc1ccc(NC(=O)N2CCc3ccccc3C2)cc1,8.42
3,C/C(=N\O)c1cccc(Br)c1,13.7
4,Cc1ccnc(NS(=O)(=O)c2ccc(NC(=O)C3CCCCC3)cc2)n1,16.7
5,COc1cc(C2Nc3ccccc3C(=O)N2NS(C)(=O)=O)ccc1O (stereo not drawn),11.3
6,Cc1[nH+]csc1CCOC(=O)c1ccccc1.[Cl-],19.7
7,CC(C)(C)NC(=O)CSC(=Nc1ccc(F)cc1)NC#N,2.78
8,Cc1cc(C)c(C(N)=O)c(Cl)n1,18
9,COc1ccc(NC(=O)NNC(=O)CCc2ccc(O)c(O)c2)cc1OC,-3.49
10,CCNc1nc(NCC)nc(OCC(=O)O)n1,14.2
11,Cc1cccc(S(=O)(=O)Nc2ccc(-c3ccc4nncn4n3)cc2)c1,-85.6
12,Fc1ccc(C2N(c3ccccc3)C(=S)N3CCCN23)cc1 (stereo not drawn),3.18
13,CCC(=O)c1ccc(OCC(=O)Nc2ccccc2N2CCOCC2)cc1,7.05
14,CCc1nnc(NCn2nc(C)cc2C)s1,9.58
15,COc1ccc(-c2c(C)nc(N)nc2-c2ccc(OC)cc2O)cc1,17.2
16,COc1ccc(/C(N)=N/OC(=O)CSc2ccc(C)cc2)cc1OC,5.19
17,CC(C)(C)OC(=O)CNC(=O)c1[nH]cnc1C(=O)NC1CCN(C(=O)OC(C)(C)C)CC1,9.32
18,COc1ccc(OC)c(NC(=O)c2[nH]c(C)c(C(C)=O)c2C)c1,16.8
19,COc1c(Cl)cnn(-c2cccc(C)c2)c1=O,12.9
20,CCOc1ccc(S(=O)(=O)N(C)c2ccc(OCC(=O)Nc3nc(-c4cc(OC)ccc4OC)cs3)cc2)cc1,3.54
21,CCN(CC)CCCN(C(=O)Cn1nnc(-c2ccc(OC)c(OC)c2)n1)C(C(=O)NC(C)(C)C)c1ccc(F)cc1 (stereo not drawn),-25.2
22,COc1ccc(OC)c(C2=NOC(C(=O)Nc3ccccc3SC)C2)c1 (stereo not drawn),10.3

row,Compound,"hERG current change (%, negative = inhibition) at 1uM [%]"
1,Cc1cccc(NC(=O)N2CCN(Cc3ccc(Cl)cc3)CC2)c1,-4.25
2,O=C(Nc1cccc(S(=O)(=O)NC2=NCCC2)c1)C1CCCCC1,12.8
3,CCCN(C(=O)C1CC(=O)N(c2ccccc2C(C)CC)C1)C1CCS(=O)(=O)C1 (stereo not drawn),9.03
4,O=C(c1ccccn1)N1N=C2/C(=C/c3ccc(F)cc3)CCCC2C1c1ccc(F)cc1 (stereo not drawn),4.86
5,Cc1cccc(N2CCN(C(=O)CCN3C(=O)C4C5C=CC(C5)C4C3=O)CC2C)c1 (stereo not drawn),-3.28
6,CCCC(C(=O)NCCC(C)C)N(Cc1ccc(OC)cc1)C(=O)c1snc(C(N)=O)c1N (stereo not drawn),7
7,CCCc1nn2c(=O)cc(CSCC(=O)Nc3ccc(OC)cc3)nc2s1,9.83
8,O=C(Nc1ccc(Cl)c([N+](=O)[O-])c1)c1ccc2c(c1)OCCO2,0.993
9,Cc1cccc(C)c1NC(=O)CN(C)C(=O)CCC(=O)c1ccccc1,2.78
10,CCCOc1ccc(C(NC(=O)CC(C)C)NC(=O)CC(C)C)cc1OC,8.31
11,COc1ccccc1/C=C/c1onc(C)c1S(=O)(=O)N1CCC(C(=O)NC2CCCCCC2)CC1,11.7
12,COCCNS(=O)(=O)c1ccc(-c2ccc(S(=O)(=O)NCCOC)cc2)cc1,-3.64
13,Cc1ccc(C(=O)NCc2ccc(Cl)cc2)o1,6.84
14,[Br-].c1sc2[n+](c1C13CC4CC(CC(C4)C1)C3)CCS2,13.3
15,COc1ccc(N(CC(=O)NCc2ccc(C)cc2)S(=O)(=O)c2c(C)noc2C)cc1,12.7
16,COc1cccc(C(=O)Nc2ccc3ccccc3c2)c1,11.3
17,COc1ccc2c(c1)c(CC(=O)Nc1cc(C)ccc1C)c(C)n2C(=O)c1ccc(Cl)cc1,15.4
18,O=C(O)c1ccccc1SCC(=O)N1c2ccccc2Sc2ccccc21,13
19,CN(C(=O)c1cccc(N2C(=O)C3CC=CCC3C2=O)c1)C1CCCCC1 (stereo not drawn),-2.87
20,CNC(=S)N/N=C/c1cn(CCOc2ccc(OC)cc2)c2ccccc12,2.53
21,O=C(O)CCC(=O)N1N=C(c2ccco2)CC1c1cccs1 (stereo not drawn),9.68
22,Cc1cc(C)n2nc(-c3ccc(F)cc3)nc2n1,7.79

row,Compound,"hERG current change (%, negative = inhibition) at 1uM [%]"
1,COc1ccccc1C(=O)N/C(=C/c1ccc2c(c1)OCO2)C(=O)Nc1ccc(C(=O)O)cc1,4.16
2,COc1ccccc1N1CCN(CC(=O)c2c[nH]c3ccccc23)CC1,-12.3
3,CCN(CC)C(=O)c1ccc(NC(=O)CNC(C)c2cccc3ccccc23)cc1 (stereo not drawn),19.1
4,Cc1ccc(OCC(=O)N2N=C(c3ccncc3)CC2(O)C(F)(F)F)cc1C (stereo not drawn),17.2
5,Nc1c2nc(-c3ccccc3Cl)[nH]c(=O)c2nc(=O)n1-c1ccccc1,6.12
6,CC(=O)Nc1ccc(NC(C)=O)s1,3.19
7,O=C(CCN1c2ccccc2Sc2ccccc21)Nc1ccccc1,5.5
8,CN(C)c1ccc(NC(=O)C2C3C=CC(C3)C2C(=O)O)cc1 (stereo not drawn),4.87
9,COc1ccc(CCN(C)C2CCCN(C(=O)CCC(F)(F)F)C2)cc1OC (stereo not drawn),-12.8
10,CCOC(=O)c1c(C)c(C(=O)NCc2ccccn2)c(C)n1CC,16.9
11,COc1cccc(-c2c(C(=O)N/N=C/c3ccoc3)nnn2-c2nonc2N)c1,12.8
12,COc1ccc(C(=O)N(Cc2ccccc2)c2cccc(C)c2)c(OC)c1OC,13.1
13,Cc1ccccc1OCc1nc2ccccc2n1C,11.9
14,CCOC(=O)N1CCN(c2nc(C(F)(F)F)nc3c(C)cc(C)cc23)CC1,-3.24
15,COc1cc(NS(=O)(=O)c2ccc(NC(=O)COc3cccc(C)c3)cc2)nc(OC)n1,15.3
16,CCOC1(OCC)N=C(N)C2(C#N)C(c3ccc(NC(C)=O)cc3)C12C#N (stereo not drawn),15.2
17,O=C(CSc1nnc(-c2ccccc2O)o1)N1CCc2ccccc2C1,13
18,Cc1ccc(N(CC(=O)NCc2ccncc2)S(C)(=O)=O)cc1Cl,14.3
19,Cc1cc2c(cc1S(=O)(=O)CCC(=O)NC1CCCCC1C)OCC(=O)N2 (stereo not drawn),-16.4
20,COCCNC(=O)C(c1ccc(C)o1)N(C(=O)c1snc(C(N)=O)c1N)c1cc(C)cc(C)c1 (stereo not drawn),3.18
21,CCN(CC)C(=O)Cn1cc(C(=O)C(=O)Nc2ccc3c(c2)OCCO3)c2ccccc21,9.88
22,COCCn1c(SCC(=O)Nc2cc(C)on2)nnc1-c1c[nH]c2ccccc12,2

row,Compound,"hERG current change (%, negative = inhibition) at 1uM [%]"
1,COc1ccc(/C=c2/sc3n(c2=O)NC2(c4ccccc4)N(C)C(=O)N(C)C2(c2ccccc2)N=3)cc1 (stereo not drawn),7.68
2,Cn1ccc(-c2ccccc2)n1,16.2
3,CCOc1cc(C(=O)Nc2cc(C)ccc2C)ccc1OCC(=O)N1CCCCC1,21.9
4,COc1ccccc1/C=C/c1onc(C)c1S(=O)(=O)N1CCC(C(=O)NC(C)C)CC1,3
5,O=C(c1ccc(Cn2c(=S)[nH]c3cc4c(cc3c2=O)OCO4)cc1)N1CCN(c2ccccc2)CC1,8.64
6,COc1ccc(C(=O)NC(=S)Nc2ccc(Cl)c(C(=O)O)c2)cc1,18
7,CCC(C)(C(=O)NC1CCCC1)N(Cc1ccco1)C(=O)c1ccc2c(c1)OCO2 (stereo not drawn),8.08
8,CC(C)(C)C(C(Oc1ccc(Cl)cc1)n1cncn1)n1nnnc1C(c1cccc(Cl)c1)N1CCCCC1 (stereo not drawn),-6.02
9,CC1(C)Cc2cccc(OCC(=O)Nc3cccnc3)c2O1,7.61
10,CN(C)C(=O)N1CCN(c2nc(-c3ccccc3)cs2)CC1,9.75
11,O=C(O)CCn1cnc2ccccc2c1=O,17.6
12,O=C(Nc1ccccn1)C1CCN(S(=O)(=O)c2cccs2)CC1,7.56
13,COc1ccc(Cl)cc1S(=O)(=O)N1CCCC(C(=O)NCc2ccccn2)C1 (stereo not drawn),5.14
14,CCOC(=O)c1sc(-c2ccccn2)nc1C,3.11
15,O=C(O)/C=C/C(=O)Nc1ccc(Oc2ncnc3cc(Cl)ccc23)nc1,15.9
16,Fc1ccc(OCCOCCN2CCCC2)cc1,2.38
17,CC1CCCCN1C(=O)CSc1nc2ccccc2n1CC(=O)N1CCc2ccccc21 (stereo not drawn),-6.67
18,CCn1c(NCc2cc(Br)ccc2NS(=O)(=O)c2ccc(C)cc2)nc2ccccc21,11.1
19,CCOC(=O)c1c(C)[nH]c(C(=O)Cn2nnc(-c3ccccc3Cl)n2)c1C,10.5
20,C/C(CC(=O)Nc1cc(C)ccn1)=N\NC(=O)C(=O)NC(C)C,13.1
21,CCCCc1ccc(NC(=S)Nc2cccnc2)cc1,14.7

# Reference: paper PMC4336329 (PLoS ONE, 2015)
